Laboratory results as given in the supplement of paper PMC3334620.
Whole data set: some 33,000 sequences, median “E-score (-0.5 to 0.5)” near -0.056, cut for the highest 2% near 0.38. Some of the results follow.

biological target: Stb4 (UniProt P50104); test: PBM E-score (8-mer binding enrichment) (E-score (-0.5 to 0.5)); higher = stronger / more preferred TF binding; most listed sequences are background and not binding sites; details: protein concentration: 200 nM; construct: GST-DNA-binding domain
Summary of the method: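 Yeast transcription factors carrying a GST tag, as full-length proteins or DNA-binding domains, were produced by PURExpress in vitro transcription/translation. About 100-200 nM protein was applied to universal all-10-mer Agilent arrays, double-stranded by primer extension on fresh or once-stripped slides. Bound protein was detected with fluorescent anti-GST, and scans were normalised with masliner. The Universal PBM Analysis Suite gave each ungapped eight-base word, pooled with its reverse complement, an E-score, a modified Wilcoxon-Mann-Whitney statistic.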

Row | Sequence | PBM E-score
1 | CCCAGGAG | -0.248
2 | ATAAGGTC | 0.0235
3 | AGTACTTA | -0.163
4 | ACGGGATA | 0.275
5 | GACCGTCA | -0.226
6 | GCATGACC | -0.0795
7 | AGTACCTA | -0.0845
8 | TATGAATA | 0.062
9 | GTAAACAC | 0.124
10 | AGTTAACA | 0.091
11 | CACTTTCA | -0.144
12 | ATAGGGCA | -0.00036
13 | CCATACCG | 0.14
14 | AACAGCAT | -0.0946
15 | GGAGGTAC | 0.112
16 | ATGCCACA | -0.111
17 | CCCCATTC | -0.0542
18 | CGAGTTCC | 0.163
19 | TAATCATA | -0.0464
20 | GAAACTGC | -0.00876
21 | GACGCCGA | 0.192
22 | GCCGGGAC | 0.28

Row | Sequence | PBM E-score
23 | CCACCAGC | -0.076
24 | AGGAGCGG | -0.117
25 | AAGGCCAC | -0.22
26 | CGATACAA | 0.0288
27 | AGAGAGCA | -0.0987
28 | ACCAATAC | 0.00731
29 | TTAACAAA | 0.0461
30 | GCGTCGCA | -0.126
31 | CACAAATA | 0.0215
32 | CCGCGCGG | 0.329
33 | CGGGTCCA | 0.159
34 | AGGGTGCG | 0.0278
35 | ACAATACA | -0.0973
36 | CGAATTAC | 0.192
37 | GCCCGCTA | -0.125
38 | TGATGACA | -0.104
39 | TCCCGCGA | 0.228
40 | CGCCGTAG | 0.0523
41 | CAAAACTC | 0.0551
42 | GGCGAACC | -0.0255
43 | ACTTATGC | -0.0458
44 | GAGATATC | 0.112

Row | Sequence | PBM E-score
45 | ATGTTAAG | 0.0118
46 | GGTCTGGA | -0.195
47 | ACGAGCTA | -0.221
48 | GAAATCCC | 0.122
49 | CCTAAAAC | -0.135
50 | CTTCCACA | -0.121
51 | ATCGCCAC | -0.0822
52 | AGGATTAC | -0.1
53 | TACTCATA | -0.0182
54 | CAGGCGCC | -0.153
55 | GCCATAAC | -0.211
56 | AAGCGCAC | -0.116
57 | CTTGATAC | -0.359
58 | GGACACCA | 0.0599
59 | GAGCACTC | 0.09
60 | AACATCTC | 0.0737
61 | GTAACCTA | 0.0635
62 | GCTCCAAC | -0.111
63 | ACGATCAG | -0.289
64 | TGAAAGCA | -0.224
65 | CTGAGCCA | -0.185
66 | AACGAAAC | -0.161

Row | Sequence | PBM E-score
67 | GGGCCCTA | -0.0534
68 | GGCGTCAC | -0.0997
69 | AAACTTTG | 0.035
70 | AACGAGTT | -0.0507
71 | CAACTAAA | -0.168
72 | ATGTATGA | -0.285
73 | GCACTCTA | -0.0977
74 | CCCATTGA | -0.17
75 | GCCATCAC | -0.164
76 | CGAGGCTA | -0.00757
77 | CAAGTAAC | -0.285
78 | CCCAGAAG | -0.133
79 | CAACCAGA | -0.0416
80 | AGCCTTGG | -0.304
81 | AACTAGTA | -0.168
82 | AGAATACT | -0.0801
83 | AAGTGTCC | 0.0675
84 | ACATAGGG | -0.188
85 | GCTTTACA | -0.116
86 | GATAAACA | -0.0275
